Experimental data as given in the BET-seq Pho4 binding data (Le et al. 2018).
The other results are listed elsewhere or left out. Values were computed here from the reads of four pooled replicates and scatter widely.

The sequences below were run against T1, Pho4 (S. cerevisiae) (UniProt P07270) (assay: relative binding free energy (BET-seq); higher = weaker binding). Conditions: reference: library average.
T1 sequence: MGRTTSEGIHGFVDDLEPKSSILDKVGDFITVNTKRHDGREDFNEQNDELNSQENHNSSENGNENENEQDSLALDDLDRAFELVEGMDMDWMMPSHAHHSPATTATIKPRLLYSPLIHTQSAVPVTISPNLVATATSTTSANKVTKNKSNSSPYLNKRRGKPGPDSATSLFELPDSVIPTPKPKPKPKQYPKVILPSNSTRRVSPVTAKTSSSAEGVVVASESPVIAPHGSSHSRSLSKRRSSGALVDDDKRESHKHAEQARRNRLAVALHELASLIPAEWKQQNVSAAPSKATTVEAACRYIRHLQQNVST

Sequence | relative binding free energy [kcal/mol]
TGACTCACGTGTTGGT | 0.18
GCGGACACGTGTTTGT | -0.12
GTGTGCACGTGGCGTA | -0.13
TGGGTCACGTGAGAGT | 0.25
TATGACACGTGGTCGG | -0.13
GTCTTCACGTGTAATG | 0.25
TTGGGCACGTGGTGGG | -0.07
GAGAGCACGTGTGGAG | -0.26
ATTATCACGTGTCGGC | 0.3
GGGCACACGTGGGAGT | 0.04
AGTTTCACGTGCTAAG | 0.25
TTTAACACGTGTAGTT | 0.05
TACTGCACGTGGATAG | 0.07
GTGGGCACGTGGTGTT | -0.15
TGGAGCACGTGCATGG | 0.04
TGAGTCACGTGAGTAG | 0.16
ATGGGCACGTGAGGCT | 0.15
GTATTCACGTGTGGCA | 0.23
CTGTACACGTGGGGGA | -0.11
ATTCTCACGTGGTTGT | 0.1
GGTTACACGTGAGAAG | 0.34
CGCGGCACGTGGGTGA | -0.24
GGTAGCACGTGTATGT | -0.01

Sequence | relative binding free energy [kcal/mol]
TTACTCACGTGGGGAA | 0.1
TCGGTCACGTGGTTGA | 0.17
GGTGCCACGTGCGGGA | -0.15
ACTGGCACGTGAAGTT | 0.23
GTGGTCACGTGGACAA | 0.18
TGTGTCACGTGAAAGA | 0.41
CTTTGCACGTGTAATG | 0.23
TTGTTCACGTGTGTGG | 0.3
TCGGCCACGTGGTGGA | -0.1
AATGACACGTGATGTT | 0.15
TCTTTCACGTGCTTTG | 0.2
AGGCGCACGTGTGAGT | -0.03
TTAAGCACGTGGTTCG | -0.21
TTACGCACGTGTGAGT | -0.07
GGCATCACGTGGAGGG | 0.16
ATCGGCACGTGGGATG | -0.13
TGTTCCACGTGTTAGA | -0.01
CTTTTCACGTGTGAGA | 0.3
AGAGTCACGTGGTAGT | 0.07
AAGGGCACGTGTCGCT | -0.05
TGCGACACGTGTGCGG | 0.11
AGGTGCACGTGGATTT | 0.03
AAATACACGTGGTGTT | 0

Sequence | relative binding free energy [kcal/mol]
TGTGTCACGTGCGAAT | 0.11
AGTATCACGTGTAGAA | 0.35
GGGGGCACGTGATTCA | 0.04
CGCGTCACGTGGAGGT | 0.07
ATATACACGTGGTGTC | -0.1
GTGGGCACGTGGGACA | -0.09
TGGCGCACGTGGCTGA | -0.1
TGTATCACGTGTAAAA | 0.17
ATGTGCACGTGATGAA | 0.12
TAGGTCACGTGGTCAA | 0.01
GTTTGCACGTGTATTG | 0.06
GTCACCACGTGTTGGT | -0.04
TAAGGCACGTGTTCTA | -0.02
TTTGGCACGTGTAACA | 0.05
TGCGTCACGTGGGTTT | 0.05
TGTAACACGTGGCGGG | -0.07
CGTTACACGTGGGTTA | -0.09
AGTGTCACGTGGAGTC | 0.06
CAAAGCACGTGAGGGT | 0.17
TGGTTCACGTGCGAAG | 0.08
ACAGGCACGTGGGGAG | -0.3
TAAGGCACGTGTATGG | -0.11
AATGTCACGTGTTAAA | 0.09

Sequence | relative binding free energy [kcal/mol]
GTAGACACGTGGTTGA | -0.02
ATCGTCACGTGGTTTA | 0.05
GTGGGCACGTGTCGCT | -0.02
GTCATCACGTGTAGGT | 0.22
TTGCACACGTGGTCGT | -0.04
TTCTGCACGTGGGACT | 0.02
TTTACCACGTGTTTGG | 0
TGGGCCACGTGTATGT | 0
ACCTTCACGTGGTTGT | 0.32
AGTGGCACGTGAATGA | 0.1
TTTTGCACGTGCTGTT | -0.09
AGGTGCACGTGTAGGT | -0.06
ACTTGCACGTGGTGTG | -0.13
TGGATCACGTGTAGCG | 0.18
TGCAACACGTGTTATT | 0.05
GTTGGCACGTGATTAG | 0.03
AAATGCACGTGGACTT | 0.2
GCATGCACGTGGGTGG | -0.05
TTAGGCACGTGTGATG | -0.06
TGATGCACGTGTAGGA | -0.06
GTGGCCACGTGTGGAG | 0.01
AGCGTCACGTGATGAT | 0.29
GGGTTCACGTGTTGGT | 0.34

Sequence | relative binding free energy [kcal/mol]
ATTAACACGTGTGTAT | 0.07
GTGATCACGTGTAGAG | 0.12
GTGTTCACGTGGTGAT | 0.17
TATTGCACGTGATTAA | -0.06
TTGCGCACGTGTTAGT | -0.01
GACATCACGTGTAGGT | 0.19
TTAGGCACGTGGAAGT | -0.04
GGAGTCACGTGGTGTT | 0.19
TGGGACACGTGTACGG | 0.11
GATTTCACGTGATGGT | 0.41
GATTGCACGTGTGGTC | 0.14
ATAGGCACGTGGGGTG | -0.32
CGCTTCACGTGGGGTA | 0.08
AGTAACACGTGTGATT | 0.05
ATGACCACGTGGAGTG | -0.03
TGCAGCACGTGTTTTT | -0.12
GGGATCACGTGGAGTT | 0.19
GTAAGCACGTGGGTCA | -0.15
GACTTCACGTGGGGTC | 0.36
GGCTTCACGTGAGGGC | 0.4
TGTCTCACGTGTTGGG | 0.19
TAAGGCACGTGGATTG | -0.01
GTCGTCACGTGTATGT | -0.01
